In the RNAGym collection of RNA variant scans (doi:10.1073/pnas.2313332121):
Variants at the floor of the assay are shown more often than the library holds them.

B1: TPR 5TU (parent)
chain: GGAUCUUCUCGAUCUAACAAAAAAGACAAAUCUGCCACAAAGCUUGAGAGCAUCUUCGGAUGCAGAGGCGGCAGCCUUCGGUGGCGCGAUAGCGCCAACGUUCUCAACUAUGACACGCAAAACGCGUGCUCCGUUGAAUGGAGUUUAUCAUG

Variants of: B1
Experiment: polymerase ribozyme fitness, log enrichment relative to wild type (log ratio); higher = more active; in vitro selection for triplet polymerase activity
Procedure, shortened: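 To select mutant libraries of each subunit of a heterodimeric triplet polymerase ribozyme, built by PCR and transcribed, each was annealed with a biotinylated primer, partner subunit and triplets, then incubated frozen at −7 °C. Extended constructs were gel-excised, captured on streptavidin beads and amplified by RT-PCR, in one round carried out in triplicate. Illumina sequencing of input and output libraries kept genotypes with ≥10 input reads and ≥1 read per output. Fitness is the base-2 logarithm of genotype enrichment relative to wild-type enrichment, from inverse-variance-weighted replicate averages.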

GGAUCUUCUCGAUCUAACCAAAAAGACAAAUCUGCCACAAAGCUUGAGAGCAUCUUCGGAUGCAGAGGCGGCAGCCUUCGGUGGCGCGAUAGCGCCAACGUUCUCAACUAUGACACGCAAAACGCGUGGUCCGUUGAAUGGAGUUUAGCAUG [A19C C129G U148G] and GGAUCUUCUCGAUCUAACCAAAAAGACAAAUCUACCACAAAGCUUGAGGGCUUCUUCGGAUGCAGAGUCGGCAGCCUUCGGUGGCGCGAUAGCGUCAACGUUCUCAACUAUGACACGCAUAACGCGUGCUCUGUUGAAUGGAGUUAAUCAUG [A19C G34A A49G A52U G68U C95U A120U C132U U146A] cannot be ordered by “polymerase ribozyme fitness (log ratio)” value: ≤ -4.2 for the first, ≤ -4.2 for the second.

GGAUCUUCUCGAUCUAACCAAAAAGACAAAUCUACCACAAAGCUUGAGAGCAUCUUCGGAUGCAGAGGCGGCAGCCCUCGGUGGCGGGAUAUCGCAAACGUUCUCAACUAUGACACGCAAAACGCGUGCUCCGUUGAAUGGAGUUUAUCAUA [A19C G34A U77C C87G G92U C96A G152A] and GGAUCUUCUCGAUCUAACCAAAAAGACAAAUCUGCCACAAAGCUUGACAGAAUCUUCGGAUGCAGAGGCGGCAGCCUUCGGUGGCUCGAUAGCGCCAACGUUCUCAACUAUGACACGCAAAACGCGUUCUCCGUUGAAUGGAGUUUAUCAUG [A19C G48C C51A G86U G128U] cannot be ordered by “polymerase ribozyme fitness (log ratio)” value: ≤ -4.2 for the first, ≤ -4.2 for the second.

GGAUCUUCUCGAUCUAACCAAAAAGACAAAUCUGCCACAAAGCUUGACAACAUCUUCGGAUGCAGAGGCGGCAGCCUUCGGUGGUGCGAUAGCGCCAACGUUCUCAACUAUGACACGGAAAACGCGUGCUCCGUUUAAUGGAGUUUAUCAUG [A19C G48C G50A C85U C118G G136U] and GGAUCUUCUCGAUCUAACCAAAAAGACAAAUCUGCCACAAAGCUUGACAGCAUCUUCGGAAGCAGAGGCGGCAGCCUUUGGUGGCGCGAUAGCGCUAACGUUCUCAACUAUGACACGCAAAACGCGUGCUCCGUUGAAUGGAGUUUAUCAUG [A19C G48C U61A C79U C96U] cannot be ordered by “polymerase ribozyme fitness (log ratio)” value: ≤ -4.2 for the first, ≤ -4.2 for the second.

GGAUCUUCUCGAUCUAACCAAAAAGACAAAUCUGCCACAAAGCUUGAGAAAAUCUUCGGAUGCAGAGGCGGCAGCCUUCGGUGGCGAGAUAGCGCCAACGUUCUCAACUACGACACGCAAAACGCGUGCUCCGUUGAAUGGAGUUUAUCAUG [A19C G50A C51A C87A U111C] and GGAUCUUCUCGAUCUAACCAAAAAGACAAAUCUGCCACAAAGCUUGAGACCAUCAUCGGAUGCAGAGUCGGCAGCCUUCGGUGGUGCGAUAGCGCCAACGUUCUCAACUAUGACACGCAAAACGCGAGCUCCGUUGAAUGGAGUUUAUCAUG [A19C G50C U55A G68U C85U U127A] cannot be ordered by “polymerase ribozyme fitness (log ratio)” value: ≤ -4.2 for the first, ≤ -4.2 for the second.

Going from GGAUCUUCUCGAUCUAACCAAAAAGACAAAUCUGCCACAAAGCUUGAGAGCAUCUUCCGAUGCAGAGGCGGCAGCCUUCGGUGGCGCGAUAGCGUCAACGUUCUCAACUAUGACACGCAAAACGCGUGCUCCGUUGAAUUGAGUUUAUCAUG [A19C G58C C95U G140U] to GGAUCUUCUCGAUCUAACCAAAAAGACAAAUCUGCCACAAAGCUUGAGAGCAUCUUCGGAUCCAGAGGCGGAAGCCUUCGGUGGCGAGAUAGCGCCAACGUUCUCAACUAUGACACGCAAAACGCGUGCUUCGUAGAAUGGAGUUUAUCAUG [A19C G62C C72A C87A C131U U135A], the “polymerase ribozyme fitness (log ratio)” value falls from -3.88 to ≤ -4.2.

GGAUCUUCUCGAUCUAACCAAAAAGACAAAUCUGCCACAAAGCUUGAGAGCAUCUUCGGAUGCAGAGGCGGCAGCCUUCGUUGGCGCGAUAGCUCCAACGUUCGCAACUAUGACACGCAAAACGCGUGCACCGUUUAAUGGAGUUUAUCAUG [A19C G81U G94U U104G U130A G136U] and GGAUCUUCUCGAUCUAACCAAAAAGACAAAUCUGCCACAAAGCUUGAGAGCAUCUUCGGAUGCAGAGGCGGCAGCCUUCGGUGACGCGAUAGCGCCAACGUUCUCAACUAUGACACGCCAAACGCGUGCUCCGUGGAAUUGAGUUUAUCAUG [A19C G84A A119C U135G G140U] cannot be ordered by “polymerase ribozyme fitness (log ratio)” value: ≤ -4.2 for the first, ≤ -4.2 for the second.

First: GGAUCUUCUCGAUCUAACCAAAAAGACAAAUCUGCCACAAAGCUUGAGAGCAUCUUCGGAUGCAGAGGCGGCAGCCUUCGGUGGCGCGAUAGCGCCAACGUUCUCAACUAUGACACCCAAAACGCGUGCUCCGUUGAAUGGAGUUUAUCAUG [A19C G117C]
Second: GGAUCUUCUCGAUCUAACCAAAAAGACAAAUCUGCCACAAAGCAUGAGAGCAUCUUCGGAUGCAGAGGCGGCAGCCUUCGGUGGCGCGAUAGCGCCAACGUUCUCAACUAUGACACGCAAAACGCGUGCUCCGUUGAAUGGAGUUUAUCAUG [A19C U44A]
The “polymerase ribozyme fitness (log ratio)” value of the first is higher: 0.678 for the first, -3.87 for the second.

GGAUCUUCUCGAUCUAACCAAAAAGACAAAUCUGCCACAAAGCAUGAGAGCAUCUUUGGAAGCAGAGGCGGCAGCCUUCGGUGGCGCGAUAGCGCCAACGUUCUCAACUAUGACACGCAAAACGCGUGCUCCGUUGAAUGGAGUGUAUCAUG [A19C U44A C57U U61A U145G] and GGAUCUUCUCGAUCUAACCAAAAAGACAAAUCUGCCACAAAGCUUGAGAGCAACUUCGGAUGCAGAGGCGGCAGCCUUCGGUGGGGCGAUAGAGGCAACGUUCUCAACUAUGACAAGCAAAACGCGUGCUCCGUUGAAUGGGGUUUAUCAUG [A19C U53A C85G C93A C95G C116A A142G] cannot be ordered by “polymerase ribozyme fitness (log ratio)” value: ≤ -4.2 for the first, ≤ -4.2 for the second.

GGAUCUUCUCGAUCUAACCAAAAAGACAAAUCUGCCACAAAGCUUGAGAGCAACUUCGGAUGCAGAGGCGCCAGCCUUCGGUGGCGCGAUACCGCCAACGUUCUCAACUAUGACACGCAAAACGCGUGCUCCGUUGAAUGGAGUUUAACAUG [A19C U53A G71C G92C U148A] and GGAUCUUCUCGAUCUAACCAAAAAGACAAAUCUGCCACAAAGCUUGAGAGCAGUUUCGGAUGCAGAGGCGGCAGGCUUCGGUGGCGCGAUAUCGCCAACGUUCUCCACAAUGACACGCAAAACGCGUGCUCCGUUGAAUGGAGUUUAUCAUG [A19C U53G C54U C75G G92U A106C U109A] cannot be ordered by “polymerase ribozyme fitness (log ratio)” value: ≤ -4.2 for the first, ≤ -4.2 for the second.

With GGAUCUUCUCGAUCUAACCAAAAAGACAAAUCUGCCACAAAGCUUGAGAGCAGCUUCGGAUGCAGAGGCGGAAGCCUUAGGUGGCGCGAAAGCGCCAACGUUGUCAACUAUGACACGCAAAACGCGUGCUCCGUUGAAUCGAGUUUAUCAUG [A19C U53G C72A C79A U90A C103G G140C] the “polymerase ribozyme fitness (log ratio)” value was ≤ -4.2.
